# Screen size: about 420,000 compounds; about 50,000 (12%) were called active. The shares of active, inactive and inconclusive entries below differ from those in the screen. Calls follow the shape of the dose curve; as a rule, active = well fitted inhibition curve with a large enough effect; inconclusive = small, poorly fitted or top-dose-only effect; inactive = flat fitted curve, though single readings scatter. Potencies of inconclusive entries are left out as doubtful fits.
# Test: qHTS for Inhibitors of human tyrosyl-DNA phosphodiesterase 1 (TDP1): qHTS in cells in presence of CPT; also: nearly all actives have a fitted effect of over 55% in size
# Settings: chicken DT40 Tdp1-/-;hTDP1 cells + 20 nM CPT, ATP luminescence, 48 h; activity change, negative = growth inhibition: at 46.2 µM (top of the series) unless noted
# How it was run: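 Chicken DT40 Tdp1-/- cells complemented with human TDP1, 400 cells/well, exposed to compounds plus 20 nM camptothecin for at least 48 h at 37 C; viability read as ATP content by CellTiter-Glo luminescence.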
# % is scaled to controls: 0 for no effect and ±100 for the full control effect; potency is read from the fitted curve at half-maximal effect; tags tell the direction and shape of the fitted curve.
SMILES,Potency,"activity change, negative = growth inhibition"
COc1ccc(CNC2CCCc3ccccc32)c(OC)c1 (stereo not drawn),"inconclusive [inhibitor, single point]",
C=CCOC(=O)C1=C[C@@H](c2coc3ccccc3c2=O)C[C@@H](OCCCCO)O1,,inactive: -14.1%
CC(=O)CSc1ccc(-c2nc3cc(C)c(C)cc3[nH]2)cn1,"inconclusive [inhibitor, single point]",
C=C(C(=O)c1ccccc1)C(C)C(=C)C(=O)c1ccccc1,active: 5.8 µM,
CC(C)CC(NS(=O)(=O)c1ccc2c(c1)oc(=O)n2C)C(=O)NC1CCCc2ccccc21 (stereo not drawn),"inconclusive [inhibitor, single point]",
N#CC1=C(N)Oc2cc(N)ccc2C1C1CC=CCC1 (stereo not drawn),"inconclusive [inhibitor, single point]",
COc1cc(CNCc2ccncc2)cc(Br)c1OCc1ccccc1F,"inconclusive [inhibitor, single point]",
O=C(c1ccncc1)N(Cc1cc2ccccc2[nH]c1=O)C1CCCCC1,"inconclusive [inhibitor, single point]",
O=C1c2ccccc2C(=O)C1c1ccc2ccccc2n1,active: 6.31 µM,
CC(=O)N1CCOc2ccc(S(=O)(=O)Nc3cccc(C)n3)cc21,"inconclusive [inhibitor, single point]",
CCOc1ccc(CCNC(=O)COn2nnc3ccc(S(=O)(=O)N4CCOCC4)cc32)cc1OCC,,inactive: -27.1%
Cc1ccc(C)c(NC(=O)c2ccc3c(c2)CCCN3S(C)(=O)=O)c1,,inactive: -15.5%
COc1ccc(CN2CCN(Cc3ccc4ccccc4c3)CC2)cc1OC,"inconclusive [inhibitor, partial curve]",
S=c1ccss1,,inactive: -13.1%
Cc1ccc(Nc2nc(N)nc(COC(=O)c3ccc(Br)o3)n2)cc1,"inconclusive [inhibitor, single point]",
COc1cc(OC)nc(Oc2ccccc2C=O)n1,,inconclusive: -36.5% [inhibitor]
O=C(NC1CCCCC1)C(c1ccc2ncccc2c1)N(Cc1ccccc1)C(=O)c1ccc2c(c1)OCCO2 (stereo not drawn),active: 13 µM,
Cn1cccc1C(=O)OCc1nc2ccccc2c(=O)[nH]1,"inconclusive [inhibitor, single point]",
COc1ccc(-n2c(C)cc(C(=O)CSc3ccc(NC(C)=O)cc3)c2C)cc1,"inconclusive [inhibitor, single point]",
C/C(=N\NC(=O)C(=O)Nc1cc(C)ccc1C)c1ccncc1,,inactive: -6.41%
COc1cc(/C=C(\NC(C)=O)C(=O)Nc2cccc(O)c2)ccc1OC(C)=O,,inactive: 25.4%
Cc1ccc(Cl)cc1-c1cc(C(=O)N2CCN(c3ccncc3)CC2)[nH]n1,"inconclusive [inhibitor, single point]",
Cc1ccc2c(c1)c1c(c(=O)n(-c3cccc(Cl)c3)c(=O)n1CC(=O)N1CCCC1)n2C,"inconclusive [inhibitor, single point]",
COc1ccccc1Cc1c(-c2ccc(C#N)cc2)nc2ccc(C)cn12,"inconclusive [inhibitor, single point]",

SMILES,Potency,"activity change, negative = growth inhibition"
COC(=O)C1(C)NC(c2ccc(F)cc2)C2C(=O)N(c3ccc(C)cc3)C(=O)C21 (stereo not drawn),,inactive: 1.23%
CCOc1ccccc1NC(=O)c1nc(SCc2ccccc2F)ncc1Cl,"inconclusive [inhibitor, partial curve]",
COc1cc(C2c3c(oc4cc(C)c(C)cc4c3=O)C(=O)N2CCCN2CCOCC2)ccc1O (stereo not drawn),"inconclusive [inhibitor, single point]",
Cc1ccc(C(=O)Nn2c(C)nc3ccccc3c2=O)cc1C,"inconclusive [inhibitor, single point]",
CC(=O)Nc1cc([N+](=O)[O-])ccc1OCc1ccccc1,"inconclusive [inhibitor, single point]",
c1ccc(Sc2ccccc2CN2CCCC2)cc1,,inactive: 8.3%
C=Cc1ccc(Cn2c(C)c(C(=O)NCc3ccc4c(c3)OCO4)sc2=O)cc1,"inconclusive [inhibitor, single point]",
Cn1cccc1/C=C1\SC(=O)N(c2ccccc2)C1=O,,inactive: -13.4%
O=C1CC(c2cccc([N+](=O)[O-])c2)c2ccc3ccccc3c2N1 (stereo not drawn),active: 25.9 µM,
COc1ccc(-n2ncc3c2CC(C)(C)CC3NC(=O)c2ccc(OC)o2)cc1 (stereo not drawn),"inconclusive [inhibitor, partial curve]",
COc1cc(SC)ccc1C(=O)NCc1ccc(C)cc1,active: 15.8 µM,
CN1CCN(c2ccc(CNS(=O)(=O)c3ccsc3)cc2)CC1,,inactive: -12.6%
Cc1c(C(=O)N2CCC(c3nc4ccccc4s3)CC2)oc2cc(Br)ccc12,"inconclusive [inhibitor, single point]",
C=C(C)C1CC=C(CN2CCC(O)CC2)CC1 (stereo not drawn),,inactive: -21.2%
c1ccc(-c2ccc(-c3cnc4n3CCCCC4)cc2)cc1,"inconclusive [inhibitor, single point]",
CCCCCCn1c(COc2ccccc2F)nnc1SCC(=O)N1c2ccccc2NC(=O)C1(C)C,active: 23.1 µM,
Cc1cccc(-n2c(C)n[nH]c2=S)c1C,,inactive: -0.645%
O=C(Cn1c(=O)ccn(Cc2ccccc2)c1=O)Nc1cccc(S(=O)(=O)N2CCOCC2)c1,,inactive: 6.68%
Cc1nnc(SCC(=O)NC2CCCC2)n1C(C)C,,inactive: 3.29%
COc1ccc(CCN2C(=O)COc3ccccc3C2C(=O)Nc2ccc3c(c2)OCCO3)cc1OC (stereo not drawn),"inconclusive [inhibitor, single point]",
CCOc1ccc(-n2c(SCc3nc(-c4ccc(OC)cc4)no3)nnc2-c2ccncc2)cc1,"inconclusive [inhibitor, single point]",
Cc1cc(C)cc(N2C(=O)CC(c3ccccc3)CC2=O)c1,,inactive: -1.62%
COCCNc1ncnc2ccc(-c3cccc(OC)c3)cc12,"inconclusive [inhibitor, single point]",
COc1cccc(-c2cc(C(=O)NC3CC3)c3ccccc3n2)c1,"inconclusive [inhibitor, single point]",
